Results are given in words; binding and its absence hold for the method and conditions named. Binding seen in cells or lysates may run through a third protein. Some results given as binding are weak or reduced against the parent protein; the word gives no strength. For some assays here: Tags and fused reporters may be left off the sequences shown.
B1: HA-tagged TRAF6 (enzyme, UniProt P70196 1-530)
chain: MSLLNCENSCGSSQSSSDCCAAMAASCSAAVKDDSVSGSASTGNLSSSFMEEIQGYDVEFDPPLESKYECPICLMALREAVQTPCGHRFCKACIIKSIRDAGHKCPVDNEILLENQLFPDNFAKREILSLTVKCPNKGCLQKMELRHLEDHQVHCEFALVNCPQCQRPFQKCQVNTHIIEDCPRRQVSCVNCAVSMAYEEKEIHDQSCPLANIICEYCGTILIREQMPNHYDLDCPTAPIPCTFSVFGCHEKMQRNHLARHLQENTQLHMRLLAQAVHNVNLALRPCDAASPSRGCRPEDPNYEETIKQLESRLVRQDHQIRELTAKMETQSMYVGELKRTIRTLEDKVAEMEAQQCNGIYIWKIGNFGMHLKSQEEERPVVIHSPGFYTGRPGYKLCMRLHLQLPTAQRCANYISLFVHTMQGEYDSHLPWPFQGTIRLTILDQSEALIRQNHEEVMDAKPELLAFQRPTIPRNPKGFGYVTFMHLEALRQGTFIKDDTLLVRCEVSTRFDMGGLRKEGFQPRSTDAGV
B2: HA-tagged TLR7 (receptor, UniProt P58681 27-1050)
chain: FRWFPKTLPCEVKVNIPEAHVIVDCTDKHLTEIPEGIPTNTTNLTLTINHIPSISPDSFRRLNHLEEIDLRCNCVPVLLGSKANVCTKRLQIRPGSFSGLSDLKALYLDGNQLLEIPQDLPSSLHLLSLEANNIFSITKENLTELVNIETLYLGQNCYYRNPCNVSYSIEKDAFLVMRNLKVLSLKDNNVTAVPTTLPPNLLELYLYNNIIKKIQENDFNNLNELQVLDLSGNCPRCYNVPYPCTPCENNSPLQIHDNAFNSLTELKVLRLHSNSLQHVPPTWFKNMRNLQELDLSQNYLAREIEEAKFLHFLPNLVELDFSFNYELQVYHASITLPHSLSSLENLKILRVKGYVFKELKNSSLSVLHKLPRLEVLDLGTNFIKIADLNIFKHFENLKLIDLSVNKISPSEESREVGFCPNAQTSVDRHGPQVLEALHYFRYDEYARSCRFKNKEPPSFLPLNADCHIYGQTLDLSRNNIFFIKPSDFQHLSFLKCLNLSGNTIGQTLNGSELWPLRELRYLDFSNNRLDLLYSTAFEELQSLEVLDLSSNSHYFQAEGITHMLNFTKKLRLLDKLMMNDNDISTSASRTMESDSLRILEFRGNHLDVLWRAGDNRYLDFFKNLFNLEVLDISRNSLNSLPPEVFEGMPPNLKNLSLAKNGLKSFFWDRLQLLKHLEILDLSHNQLTKVPERLANCSKSLTTLILKHNQIRQLTKYFLEDALQLRYLDISSNKIQVIQKTSFPENVLNNLEMLVLHHNRFLCNCDAVWFVWWVNHTDVTIPYLATDVTCVGPGAHKGQSVISLDLYTCELDLTNLILFSVSISSVLFLMVVMTTSHLFFWDMWYIYYFWKAKIKGYQHLQSMESCYDAFIVYDTKNSAVTEWVLQELVAKLEDPREKHFNLCLEERDWLPGQPVLENLSQSIQLSKKTVFVMTQKYAKTESFKMAFYLSHQRLLDEKVDVIILIFLEKPLQKSKFLQLRKRLCRSSVLEWPANPQAHPYFWQCLKNALTTDNHVAYSQMFKETV
B3: LRSAM1 (protein, UniProt Q80ZI6 1-727)
chain: MPLFFRKRKPSEEARKRLEYQMCLAKEAGADDILDISKCELSEIPFGAFATCKVLQKKVLIVHTNHLTSLLPKSCSLLSLVTIKVLDLHENQLTALPDDMGQLTVLQVLNVERNQLTHLPRSIGNLLQLQTLNVKDNKLKELPDTLGELRSLRTLDISENEIQRLPQMLAHVRTLETLSLNALAMVYPPPEVCGAGTAAVQQFLCKESGLDYYPPSQYLLPVLEQDGAENTQDSPDGPASRFSREEAEWQNRFSDYEKRKEQKMLEKLEFERRLDLGQREHAELLQQSHSHKDEILQTVKQEQTRLEQDLSERQRCLDAERQQLQEQLKQTEQSIASRIQRLLQDNQRQKKSSEILKSLENERIRMEQLMSITQEETENLRQREIAAAMQQMLTESCKSRLIQMAYESQRQSLAQQACSSMAEMDKRFQQILSWQQMDQNKAISQILQESVMQKAAFEALQVKKDLMHRQIRNQIRLIETELLQLTQLELKRKSLDTETLQEMVSEQRWALSNLLQQLLKEKKQREEELHGILAELEAKSETKQENYWLIQYQRLLNQKPLSLKLQEEGMERRLVALLVELSAEHYLPLFAHHRISLDMLSRMSPGDLAKVGVSEAGLQHEILRRAQDLLAVPRVQPELKPLENEVLGALEPPTAPRELQESVRPSAPPAELDMPTSECVVCLEREAQMVFLTCGHVCCCQQCCQPLRTCPLCRQEISQRLRIYHSS

Amino acid sequences for entries named in this document (tags omitted). Residues count along the entry.
UniProt Q9QUK6, residues 26-835: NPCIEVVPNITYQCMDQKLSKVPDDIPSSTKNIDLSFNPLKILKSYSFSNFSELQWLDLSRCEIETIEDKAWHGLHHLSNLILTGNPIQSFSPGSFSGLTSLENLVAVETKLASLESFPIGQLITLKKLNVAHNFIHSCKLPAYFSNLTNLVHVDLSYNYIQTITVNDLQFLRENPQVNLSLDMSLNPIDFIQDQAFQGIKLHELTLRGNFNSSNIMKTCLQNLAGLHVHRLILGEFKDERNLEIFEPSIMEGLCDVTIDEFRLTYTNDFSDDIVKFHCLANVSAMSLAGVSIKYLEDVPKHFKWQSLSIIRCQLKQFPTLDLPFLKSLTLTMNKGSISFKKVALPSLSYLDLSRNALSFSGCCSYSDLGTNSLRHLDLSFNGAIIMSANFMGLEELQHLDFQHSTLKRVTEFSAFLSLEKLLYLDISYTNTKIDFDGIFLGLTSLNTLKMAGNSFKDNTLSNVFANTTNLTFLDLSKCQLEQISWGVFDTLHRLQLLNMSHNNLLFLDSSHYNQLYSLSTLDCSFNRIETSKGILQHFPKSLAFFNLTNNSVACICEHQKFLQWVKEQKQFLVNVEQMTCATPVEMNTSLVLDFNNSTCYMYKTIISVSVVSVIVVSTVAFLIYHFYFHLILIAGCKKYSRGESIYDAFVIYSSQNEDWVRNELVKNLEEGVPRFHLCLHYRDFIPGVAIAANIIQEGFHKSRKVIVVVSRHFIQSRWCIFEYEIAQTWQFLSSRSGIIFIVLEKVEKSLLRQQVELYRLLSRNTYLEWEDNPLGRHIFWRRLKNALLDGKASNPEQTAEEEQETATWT
UniProt P22366: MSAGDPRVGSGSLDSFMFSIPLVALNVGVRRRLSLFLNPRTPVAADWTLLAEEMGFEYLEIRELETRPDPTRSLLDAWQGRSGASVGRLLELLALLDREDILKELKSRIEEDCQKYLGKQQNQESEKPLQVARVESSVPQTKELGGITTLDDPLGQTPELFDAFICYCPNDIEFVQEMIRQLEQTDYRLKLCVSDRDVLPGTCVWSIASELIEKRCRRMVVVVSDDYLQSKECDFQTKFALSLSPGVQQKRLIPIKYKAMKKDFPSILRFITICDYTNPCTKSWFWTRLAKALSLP
UniProt Q99JY1: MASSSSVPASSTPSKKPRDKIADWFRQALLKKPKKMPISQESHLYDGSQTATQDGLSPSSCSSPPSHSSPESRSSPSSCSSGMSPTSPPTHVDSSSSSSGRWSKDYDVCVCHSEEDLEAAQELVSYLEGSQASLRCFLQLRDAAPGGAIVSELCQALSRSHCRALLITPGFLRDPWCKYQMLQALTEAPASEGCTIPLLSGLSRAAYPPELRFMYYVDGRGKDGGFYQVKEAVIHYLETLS
UniProt Q99MB1, residues 26-905: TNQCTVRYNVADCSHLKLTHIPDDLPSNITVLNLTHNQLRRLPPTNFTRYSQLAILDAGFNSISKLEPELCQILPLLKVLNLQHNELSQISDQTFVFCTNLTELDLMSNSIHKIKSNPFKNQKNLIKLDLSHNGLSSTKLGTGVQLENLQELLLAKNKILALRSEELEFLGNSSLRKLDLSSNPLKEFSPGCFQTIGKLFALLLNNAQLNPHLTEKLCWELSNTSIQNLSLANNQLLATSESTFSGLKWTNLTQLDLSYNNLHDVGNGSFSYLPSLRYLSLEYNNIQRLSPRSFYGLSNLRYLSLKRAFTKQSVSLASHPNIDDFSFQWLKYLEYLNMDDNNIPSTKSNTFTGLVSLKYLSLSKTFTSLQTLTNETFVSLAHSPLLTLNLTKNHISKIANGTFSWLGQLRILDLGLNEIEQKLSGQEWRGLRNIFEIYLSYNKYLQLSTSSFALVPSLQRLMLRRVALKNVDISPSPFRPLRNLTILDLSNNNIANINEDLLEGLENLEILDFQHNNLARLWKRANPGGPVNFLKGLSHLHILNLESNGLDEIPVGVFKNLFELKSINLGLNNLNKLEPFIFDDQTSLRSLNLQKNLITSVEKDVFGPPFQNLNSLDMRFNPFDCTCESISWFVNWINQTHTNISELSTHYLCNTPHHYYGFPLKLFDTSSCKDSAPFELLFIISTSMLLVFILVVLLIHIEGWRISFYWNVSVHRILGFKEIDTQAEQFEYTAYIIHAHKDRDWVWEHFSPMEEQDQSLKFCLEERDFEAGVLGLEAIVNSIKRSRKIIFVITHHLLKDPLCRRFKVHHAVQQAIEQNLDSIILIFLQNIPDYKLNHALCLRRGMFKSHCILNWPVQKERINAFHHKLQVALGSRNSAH

Tests used:
[1] = target: T1, Flag-tagged GPR108 (mouse) (UniProt Q91WD0); assay: co-IP; HEK293 or HEK293T cells co-transfected with Flag- and HA-tagged proteins; lysis buffer 10 mM Tris pH 7.4, 100 mM NaCl, 1 mM EDTA, 1 mM EGTA, 1% Triton X-100, 10% glycerol, 0.1% SDS, 0.5% deoxycholate; anti-flag M2 agarose 2 h at 4°C; blots with anti-HA and anti-Flag (Fig 6A: cells stimulated with LPS for different times, with or without GPR108, blot with anti-MyD88)
T1 sequence: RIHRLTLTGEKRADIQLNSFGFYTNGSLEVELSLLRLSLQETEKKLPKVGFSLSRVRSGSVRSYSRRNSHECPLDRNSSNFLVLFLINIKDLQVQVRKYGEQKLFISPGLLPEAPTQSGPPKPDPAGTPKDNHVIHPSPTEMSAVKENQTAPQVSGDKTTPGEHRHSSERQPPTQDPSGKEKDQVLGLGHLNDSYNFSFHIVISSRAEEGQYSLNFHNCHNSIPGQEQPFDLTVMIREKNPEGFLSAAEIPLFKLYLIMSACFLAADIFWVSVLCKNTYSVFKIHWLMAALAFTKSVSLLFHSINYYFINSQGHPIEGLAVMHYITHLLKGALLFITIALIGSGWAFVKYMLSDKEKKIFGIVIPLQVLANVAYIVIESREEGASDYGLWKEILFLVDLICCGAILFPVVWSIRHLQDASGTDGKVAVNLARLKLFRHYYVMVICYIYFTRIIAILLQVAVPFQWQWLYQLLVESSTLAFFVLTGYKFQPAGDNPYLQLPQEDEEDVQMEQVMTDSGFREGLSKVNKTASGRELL

Flag-tagged TLR4 (mouse) = Flag-tagged TLR4 (mouse) (UniProt Q9QUK6); assay: as above

Row | Molecule | binding [1] | binding (Flag-tagged TLR4 (mouse))
1 | HA-tagged TLR4 (from UniProt Q9QUK6 26-835) (receptor) | binds | –
2 | HA-tagged MyD88 (from UniProt P22366 1-296) | binds | binds
3 | HA-tagged TIRAP (from UniProt Q99JY1 1-241) | binds | –
4 | HA-tagged TLR3 (from UniProt Q99MB1 26-905) (receptor) | binds | –
5 | B1 | binds | –
6 | B2 | binds | –
7 | B3 | no binding | –

— publication PMC6192633
